According to PubChem BioAssay AID624418 (National Center for Advancing Translational Sciences (NCATS), 2012):
Screen size: about 410,000 compounds; about 530 (0.13%) were called active. Inconclusive results, whose numbers are uncertain, are shown with a selection of clear calls. Calls come from the whole dose curve; as a rule, active = well fitted inhibition curve with a large enough effect; inconclusive = small, poorly fitted or top-dose-only effect, or another doubt; inactive = no such curve, though single readings can be large or run the other way. Potencies beside an inconclusive call are fits to weak or partial responses and may not hold up. The source holds several records for some structures; these can differ, active in one and inactive in another.

Assay: qHTS of GLP-1 Receptor Inverse Agonists: Cytotox Screen
Conditions: HEK293 cAMP-luciferase reporter cells, luminescence, 24 h; activity change, negative = inhibition: at 38.3 µM (top of the series) unless noted
Method in brief: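 MLSMR compounds, 24 hr on cells at 37 deg C/5% CO2; luminescence after luciferase reagent (12 min RT). Inhibition counted as the undesired cytotoxic outcome.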
% is set by controls: 0 for no effect and ±100 for the full control effect; potency is the fitted concentration of half-maximal effect.

Row | SMILES | Potency | activity change, negative = inhibition
1 | C=CCN1CC(C(=O)N2CCC(Cc3ccc(Cl)cc3)(C(=O)OCC)CC2)CC1=O (centres undefined) | inconclusive: 0.501 µM [inhibitor, full curve, poor fit] | 
2 | c1ccc(CCNc2ncnc3scc(C4COc5ccccc5O4)c23)cc1 (centres undefined) | inconclusive: 17.8 µM [inhibitor, single point] | 
3 | Cc1ccc(Cc2c(-c3ccc(F)cc3)nc3cc(C)ccn23)cc1 | inconclusive: 14.1 µM [inhibitor, single point] | 
4 | COc1cccc(Nc2cc(C)nc3ccccc23)c1 | inconclusive: 14.1 µM [inhibitor, partial curve, poor fit] | 
5 | CCN1CCN(C(=S)Nc2ccc3nc(N4CCN(CC)CC4)cc(C)c3c2)CC1 | inconclusive: 11.2 µM [inhibitor, single point] | 
6 | O=C(CSc1ncnc2c1oc1ccccc12)NC1CCCC1 | inconclusive: 2 µM [inhibitor, partial curve, poor fit] | 
7 | CC(=O)Nc1cccc(-c2ccnc3c2CC(C)(C(=O)Nc2ccc(C(C)C)cc2)O3)c1 (centres undefined) | inconclusive: 28.2 µM [inhibitor, single point] | 
8 | CCC(=O)c1ccc(OCC(=O)Nc2nc(-c3cccnc3)cs2)cc1 |  | inactive: 5.14%
9 | FC(F)Sc1ccc(NC(=S)NC(c2ccccc2)c2ccccc2)cc1 | inconclusive: 11.2 µM [inhibitor, single point] | 
10 | COc1ccccc1Nc1nc(N)nc(CCl)n1 | inconclusive: 12.6 µM [inhibitor, single point] | 
11 | COc1ccc(C(C(=O)Nc2ccc(F)cc2)N(C(=O)Cn2nnc3ccccc32)C2CC2)cc1 (centres undefined) | inconclusive: 12.6 µM [inhibitor, partial curve, poor fit] | 
12 | CC(=O)Nc1nc(C)nc(-c2ccccc2OC(C)=O)n1 |  | inactive: 0.954%
13 | CCN(CC)CCCNC(=O)CCC(=O)NNc1nc2ccccc2c2nc(C)nn12 | active: 7.94 µM | 
14 | Cc1ccc(NC(=O)c2oc3c(c2C)-c2[nH]ncc2CC3)c(Cl)c1 |  | inactive: 0.754%
15 | O=[N+]([O-])c1ccc(NCCCNS(=O)(=O)c2ccccc2)cc1 | inconclusive: 14.1 µM [inhibitor, single point] | 
16 | Cc1cnc(C(=O)N2CCc3c([nH]c4ccccc34)C2c2ccc(F)cc2)cn1 (centres undefined) |  | inactive: 2.1%
17 | CCCOc1ccc(/C(O)=C2/C(=O)C(=O)N(CCN3CCOCC3)C2c2ccccc2)cc1 (centres undefined) |  | inactive: 6.6%
18 | S=c1[nH]nc(-c2cccs2)n1/N=C/c1cn(-c2ccccc2)nc1-c1ccc(Cl)cc1 | inconclusive: 11.2 µM [inhibitor, single point] | 
19 | CCOC(=O)CCCCCC(=O)Nc1ccc2c(c1)C(=O)N([C@H](C)CO)C[C@@H](C)[C@H](CN(C)S(=O)(=O)c1cn(C)cn1)O2 |  | inactive: -15.8%
20 | Nc1nnc(-c2ccc([N+](=O)[O-])o2)s1 | inconclusive: 28.2 µM [inhibitor, single point] | 
21 | Nc1nn(-c2ccccc2)c(N)c1N=Nc1ccc2c(c1)OCO2 | inconclusive: 11.2 µM [inhibitor, partial curve, poor fit] | 
22 | CC(=O)Nc1cccc(/C(C)=N/NC(=O)c2ccc(NS(=O)(=O)c3cccs3)cc2)c1 | inconclusive: 2 µM [inhibitor, partial curve, poor fit] | 

Row | SMILES | Potency | activity change, negative = inhibition
23 | Cc1ccc2c(c1)-c1c(c(C(=O)N3CCN(c4cc(C)ccc4C)CC3)nn1C)CS2 |  | inactive: -13.7%
24 | CCc1occc(=O)c1Oc1cc(NN2CCCCC2)c([N+](=O)[O-])cc1[N+](=O)[O-] | inconclusive: 28.2 µM [inhibitor, single point] | 
25 | Clc1ccc2c(c1)-c1nnc(Br)n1-c1ccccc1S2 |  | inactive: -6.44%
26 | Cc1cc(C)c(NC(=O)CSc2nnc(Cc3cccn3C)n2-c2ccc(F)cc2)c(C)c1 |  | inactive: 4.68%
27 | O=C(CCl)N1CCN(S(=O)(=O)Cc2ccccc2)CC1 | inconclusive: 12.6 µM [inhibitor, single point] | 
28 | Nc1nc(Nc2ccccc2)nc(NCc2ccco2)c1[N+](=O)[O-] | inconclusive: 31.6 µM [inhibitor, single point] | 
29 | CCn1c(O)c(C=NC2CCCC(C)C2C)sc1=S (centres undefined) | inconclusive: 10 µM [inhibitor, single point] | 
30 | CCOC(=O)c1c(C)[nH]c(C=Nc2ccc(OC)cc2)c1O | inconclusive: 28.2 µM [inhibitor, single point] | 
31 | O=[N+]([O-])c1ccc(N/N=C2\CC3CC=CC23)cc1 (centres undefined) | inconclusive: 10 µM [inhibitor, partial curve, poor fit] | 
32 | c1ccc(-c2nc3ccccc3[nH]2)nc1 | inconclusive: 28.2 µM [inhibitor, single point] | 
33 | CCn1ccnc1CN1CCCC(C(=O)c2ccc3cc(OC)ccc3c2)C1 (centres undefined) | inconclusive: 5.62 µM [inhibitor, full curve, poor fit] | 
34 | O=C(NC(=S)NCCc1ccccc1)c1cccc(Cl)c1 | inconclusive: 20 µM [inhibitor, single point] | 
35 | O=[N+]([O-])c1ccc(C(O)C23CN4CN(CN(C4)C2)C3)cc1 (centres undefined) |  | inactive: 17.2%
36 | CCSc1cc(N2CCCC2)nc(-c2ccc(Cl)cc2)n1 | inconclusive: 28.2 µM [inhibitor, single point] | 
37 | COC(=O)c1sccc1NS(=O)(=O)c1ccc(OC)cc1 | inconclusive: 2.82 µM [inhibitor, full curve, poor fit] | 
38 | COc1ccc(NC(=O)COc2ccccc2C)cc1S(=O)(=O)N1CCCCC1 | inconclusive: 11.2 µM [inhibitor, single point] | 
39 | CNC[C@H](O)c1cccc(O)c1 |  | inactive: 12.8%
40 | COc1cc(C(=O)NCC(c2ccco2)N2CCCC2)ccc1OCc1ccc(Cl)cc1Cl (centres undefined) | inconclusive: 28.2 µM [inhibitor, single point] | 
41 | CCCNC(=O)C1(C)CCN(C(=O)c2ccc3sccc3c2)C1 (centres undefined) |  | inactive: -16.8%
42 | COc1cc(N2C(=O)C=CC2=O)c(OC)cc1Cl | inconclusive: 10 µM [inhibitor, partial curve, poor fit] | 
43 | COc1ccc2nc(SCC(=O)N3CCN(c4ccc(F)cc4)CC3)c(C#N)cc2c1 |  | inactive: 6.89%
44 | Cc1cc(C)nc(N/N=C/c2cccc3ccccc23)n1 | inconclusive: 28.2 µM [inhibitor, single point] | 
